Not every entry of the source has a single result; some have several. This is not the full list of results. The source may hold further records. Values given together are repeated measurements across runs, samples, wells, individuals or studies. Additions like (4×) count equal records among those shown.
Tested on: 935938-334-R-J1-PDC spheroids with HUVEC/MSC, viability
Experiment: Anticancer human tumor 935938-334-R-J1-PDC patient-derived small intestine adenocarcinoma cell line growth inhibition [PI3K]
Conditions: for IC50: compound alone; for viability, T/C: stronger effect = lower value
Excerpt: Combinatorial screen of targeted agents with the PI3K inhibitors inavolisib, alpelisib, duvelisib, and copanlisib in multi-cell type tumor spheroids
A high-throughput screen of multi-cell type tumor spheroids was designed to identify active combinations of targeted small molecules and PI3K pathway inhibitors. Complex spheroids include a stromal component modeled by human endothelial cells (HUVEC) and fibroblasts modeled by human mesenchymal stem cells (MSCs). The concentration ranges selected for each drug and investigational agent were based upon clinically achievable concentrations if the clinical Cmax of the agent was known.
Compounds. The drugs and investigational agents: inavolisib (NSC800729), alpelisib (NSC765974), duvelisib (NSC772469), copanlisib (NSC816437), ipatasertib (NSC767898), afuresertib (NSC778305), talazoparib (NSC767125), sapanisertib (NSC764658), selumetinib (NSC741078), tovorafenib (DAY101, NSC766906), vemurafenib (NSC761431), ravoxertinib (NSC781343), sotorasib (NSC818433), MRTX1133 (NSC 836407), abemaciclib (NSC 768073), palbociclib (NSC758247), venetoclax (NSC 766270), SY5609 (NSC837396), enzalutamide (NSC755605), and darolutamide (NSC825331), were obtained from the National Cancer Institute (NCI) Developmental Therapeutics Program Chemical Repository. The FDA-approved anticancer drug set is available from the NCI Developmental Therapeutics Program. […] The stock solutions were prepared in dimethyl sulfoxide (DMSO, Sigma-Aldrich, St. Louis, MO, cat. D2650) at 800-fold the tested concentration and stored at -70 degrees C prior to their use. All drugs and investigational agents were tested over a range starting from a high concentration at or near the clinical Cmax and decreasing in half-log increments. If the clinical Cmax for an agent had not been determined, the highest concentration tested was 10 microM.
Cell Culture. All cells were maintained in an incubator at 37 degrees C and 5% CO2 with 95% humidity. The PDC lines were cultured according to standard operating procedures established by the NCI PDMR (https://pdmr.cancer.gov/sops/default.htm). All PDCs were thawed and cultured in Matrigel-coated flasks prepared with a working solution of 1X Ham's F-12 nutrient mix, without supplementation (Invitrogen, Waltham, MA, cat. 11765054), 100 U/mL penicillin-streptomycin (Invitrogen, cat. 15140122), and 2.5% Matrigel (Corning Inc., Corning, NY, cat. 354248) for the first three passages. The 354836-022-R-J1-PDC, 475296-252-R-J1-PDC, and 997726-040-R-J2-PDC lines were cultured in 6A media, which includes advanced DMEM/F-12 (Thermo Fisher Scientific, cat. 12634028), 10 mM HEPES (Thermo Fisher Scientific, cat. 15630080), 1X GlutaMAX supplement (Thermo Fisher Scientific, cat. 35050061), 0.1 mg/mL primocin (InvivoGen, San Diego, CA, cat. ant-pm-2), 10% defined fetal bovine serum, heat inactivated (HyClone Laboratories Inc., Logan, UT, cat. SH30070.03HI), 50% L-WRN conditioned media (ATCC, cat. CRL-3276), 1.25 mM N-Acetyl-L-cysteine (Sigma-Aldrich, cat. A9165), 10 mM nicotinamide (Sigma-Aldrich, cat. N0636), 1X B-27 supplement (Thermo Fisher Scientific, cat. 17504044), 1X N-2 supplement (Thermo Fisher Scientific, cat. 17502048), and 10 microM Y-27632 dihydrochloride (Tocris Bioscience, Bristol, United Kingdom, cat. 1254). The 624824-186-R-J2-PDC line was cultured in 6C/Colon 1B media, which includes all 6A media components plus 50 ng/mL human EGF recombinant protein (Thermo Fisher Scientific, cat. PHG0311). […]
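Also: compound exposure lasted seven days before viability was read.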
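For viability, T/C in this document: percent of vehicle DMSO treated spheroid viability so 100% = untreated.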

| Structure (SMILES) | viability, T/C (compound alone 0.316 µM) | viability, T/C (compound alone 1 µM) | viability, T/C (compound alone 0.1 µM) | viability, T/C (compound alone 3.16 µM) | viability, T/C (compound alone 0.0316 µM) | also measured |
| --- | --- | --- | --- | --- | --- | --- |
| CC1(C)CCC(CN2CCN(c3ccc(C(=O)NS(=O)(=O)c4ccc(NCC5CCOCC5)c([N+](=O)[O-])c4)c(Oc4cnc5[nH]ccc5c4)c3)CC2)=C(c2ccc(Cl)cc2)C1 | 107, 89.8, 103, 72.6% | 73.1, 104, 108, 90.8% | – | – | – | IC50: 6.82 µM, 6.14 µM, 6.46 µM, > 10 µM; viability, T/C (compound alone 10 µM): 31.9, 18.1, 24.6, 72.8% |
| Cn1cnc2c(F)c(Nc3ccc(Br)cc3Cl)c(C(=O)NOCCO)cc21 | – | – | – | – | – | viability, T/C (compound alone 0.00949 µM): 57.7, 81.2, 76.8, 91.5% |
| CC(=O)c1c(C)c2cnc(Nc3ccc(N4CCNCC4)cn3)nc2n(C2CCCC2)c1=O | – | – | 56.4, 21.6, 75.7, 75.2% | – | – | viability, T/C (compound alone 0.000316 µM): 87.1, 48.4, 75.1, 107% |
| CCCS(=O)(=O)Nc1ccc(F)c(C(=O)c2c[nH]c3ncc(-c4ccc(Cl)cc4)cc23)c1F | – | 106, 141, 103, 111% | – | – | – | – |
| CC(Nc1ccc2c(c1)OCCn1cc(N3C(=O)OCC3C(F)F)nc1-2)C(N)=O (stereo not given) | 77.2, 84.8, 86.2, 75, 82.2, 78.7, 80.3, 110% | 54.6, 70.9, 75.6, 70.4, 81, 55, 63.3, 78.2% | 102, 111, 74.4, 100, 94.5, 74, 90.3, 75.2% | – | – | viability, T/C (compound alone 0.00316 µM): 83.5, 76.2, 83.6, 84.9, 106, 89, 87.9, 96.2%; viability, T/C (compound alone 0.01 µM): 95.6, 99.6, 76.8, 94.3, 99.5 (2×), 84.7, 72.1% |
| CC(Cn1ccc(-c2ccc(C#N)c(Cl)c2)n1)NC(=O)c1cc(C(C)O)[nH]n1 (stereo not given) | – | 89.5, 66, 98.7, 97.7% | 106, 77.8, 87.7, 77.4% | 116, 86.1, 103, 105% | – | viability, T/C (compound alone 10 µM): 98, 69.9, 94.5, 95.5% |
| C#Cc1c(F)ccc2cc(O)cc(-c3ncc4c(N5CC6CCC(C5)N6)nc(OCC56CCCN5CC(F)C6)nc4c3F)c12 (stereo not given) | 91.1, 81.3, 63.8, 93.9% | 83.3, 51.4, 65.8, 90.2% | 102, 82, 76.7, 92.8% | – | 78.1, 100, 73, 86.8% | – |
| Cn1ncnc1[C@H]1c2n[nH]c(=O)c3cc(F)cc(c23)N[C@@H]1c1ccc(F)cc1 | – | – | – | – | – | viability, T/C (compound alone 0.00316 µM): 68.1, 63.8, 85.3, 90.4% |
| CC(C)NCC(C(=O)N1CCN(c2ncnc3c2C(C)CC3O)CC1)c1ccc(Cl)cc1 (stereo not given) | – | – | – | 62.7, 35.8, 66, 63% | 83.5, 55.2, 91.5, 98% | viability, T/C (compound alone 10 µM): 39.5, 26.4, 52, 53.7% |
| C[C@@H](NC(=O)c1ncnc(N)c1Cl)c1ncc(C(=O)Nc2cc(C(F)(F)F)c(Cl)cn2)s1 | 115, 84.5, 119, 112% | 131, 132, 103, 102% | 89.6, 112, 103, 115% | 117, 94.5, 97.9, 122% | – | – |
| CC(Nc1ncnc2nc[nH]c12)c1cc2cccc(Cl)c2c(=O)n1-c1ccccc1 (stereo not given) | 103, 78.1, 73, 101, 92, 96.1, 88.2, 112% | 86, 82.8, 116, 97.4, 90.5, 80.9, 108, 85.8% | 91.8, 92.6, 108, 89.1, 85.5, 79.5, 98.9% | 95.5, 91.4, 86, 109, 73, 73.4, 81.3, 97.2% | – | – |
| CC(C)n1nc(-c2ccc3oc(N)nc3c2)c2c(N)ncnc21 | – | – | – | – | – | viability, T/C (compound alone 0.01 µM): 92.1, 96.1, 78.5, 113% |
| Cc1nc(NC(=O)N2CCCC2C(N)=O)sc1-c1ccnc(C(C)(C)C(F)(F)F)c1 (stereo not given) | 66.2, 72.7, 59.7, 87.9, 73.6, 76.9, 81.7, 87.3% | – | 91.6, 78.4, 73.9, 79.5, 97.1, 79.4, 100, 86.2% | 49.5, 55, 77.7, 62, 52.9, 60.5, 50.8, 64.8% | 88.6, 95, 112, 96.7, 80.6, 75.9, 89.3, 98% | IC50 (run of 04/24/2023): 6.45 µM, 8.26 µM, > 10 µM, 8.05 µM, 4.48 µM, 4.85 µM, 6.15 µM |
| Cn1nccc1Nc1nccc(-c2ccn(C(CO)c3ccc(Cl)c(F)c3)c(=O)c2)n1 (stereo not given) | – | – | 93, 85.5, 60.1, 80.7% | – | – | – |
| CNC(=O)c1ccc(N2C(=S)N(c3ccc(C#N)c(C(F)(F)F)c3)C(=O)C2(C)C)cc1F | – | 83.5, 88.2, 116, 74.5% | – | – | – | – |
| Cn1ncc(Cl)c1-c1cc(C(=O)NC(CN)Cc2cccc(F)c2)sc1Cl (stereo not given) | – | – | – | – | 90.6, 104, 76.9, 96% | viability, T/C (compound alone 10 µM): 43.2, 85, 64.1, 61.1% |
| C=CC(=O)N1CCN(c2nc(=O)n(-c3c(C)ccnc3C(C)C)c3nc(-c4c(O)cccc4F)c(F)cc23)C(C)C1 (stereo not given) | 79.6, 105, 112, 125% | – | – | 119, 98, 87.5, 114% | 106, 74.2, 97.6, 84.9% | – |
| CCN1CCN(Cc2ccc(Nc3ncc(F)c(-c4cc(F)c5nc(C)n(C(C)C)c5c4)n3)nc2)CC1 | – | 43.2, 20.9, 47.9, 46.5% | 57, 73.4, 58, 84.9% | – | 71.7, 56.7, 66, 95.9% | viability, T/C (compound alone 0.00316 µM): 86.3, 61.6, 75, 90.3% |

From PubChem BioAssay AID1963966 (Molecular Pharmacology Branch, DTP, NCI, 2024)
